Experimental data reported in ChEMBL document CHEMBL4888484, “Replenishing the malaria drug discovery pipeline: Screening and hit evaluation of the MMV Hit Generation Library 1 (HGL1) against asexual blood stage Plasmodium falciparum ,using a nano luciferase reporter read-out” (2022).
Hit rate of the full screen: of about 150,000 compounds, about 540 (0.36%) showed an effect of 50% or more. Some of the results follow.

tested on: Plasmodium falciparum; experiment: Primary screen in NF54 nanoGlo assay, in single point, at 2uM, 72h; a lower Z score goes with more inhibition; type: functional, Erythrocyte; details: timepoint 72 hour

Structure (SMILES) | % Inhibition | Z score
CN(Cc1ccccc1)c1ncccc1CNc1ncc(F)cn1 | -10% | 1.36
Cc1cc(C(=O)NCCCOc2ncccn2)ns1 | -8% | 1.19
CN(CC1CCCN(C2CCc3ccccc3NC2=O)C1)S(C)(=O)=O (stereo not given) | -15% | 2.86
CCNC(=O)C1CN(C(=O)[C@H](C)N(C)CC(F)(F)F)C1 | 28% | -3.14
COCCn1nc(C)c(CN[C@@H](C)c2ccsc2)c1C | 7% | -1.12
CCc1nc(C)cn1C[C@H]1COCCO1 | -3% | 0.35
CNC(=O)c1sc(N[C@H]2CCOc3ccccc32)nc1C | -12% | 1.18
CCn1ccnc(N2CCCCC2)c1=O | -1% | 0.18
Cc1nnc([C@H]2CCN(Cc3ccc(Cl)cc3)C2)o1 | -7% | 1.31
Cc1cnccc1CNC(=O)[C@@H]1C[C@H]1C(=O)NCc1ccncc1C | -5% | 0.65
CCc1nc(-c2cccc(NC(=O)c3ccc(C)c(NC(=O)c4ccco4)c3)c2)no1 | 2% | -0.42
C[C@H](NC(=O)C1CCCC1)c1cccs1 | -8% | 1.58
CC(NC(=O)N1CCCNC(=O)C1C)c1cccc(C#N)c1 (stereo not given) | -2% | 0.28
CN(c1cnccn1)S(=O)(=O)Cc1ccc(Cl)c(F)c1 | 0% | -0.01
Cc1nn(C)c(C)c1CNc1ncc2cccnc2n1 | -9% | 1.45
CCc1c(C(=O)Nc2cccc3ncccc23)ccn1C | 3% | -0.29
CCc1nnc(NC(=O)c2ccccc2-c2ccccc2C#N)s1 | -11% | 1.54
O=C(NCc1cccnc1)N1CCOCC1CC(O)c1cccs1 (stereo not given) | -4% | 0.45
CCc1nn2c(-c3ccccn3)ccnc2c1-c1ccc(F)cc1 | -10% | 1.47
Cc1cc(C)c2c(C(=O)N3CCC[C@@H]3C)cc(-c3cnn(C)c3)nc2c1 | 2% | -0.32
CCCc1cnc(NC(=O)N2CC[C@H](c3cc(=O)[nH]c(=O)[nH]3)C2)s1 | -22% | 1.86
Cc1ccc(C(=O)N2CCC(N3C(=O)NC4(CCCC4)C3=O)CC2)cc1 | 7% | -1.25
COc1ccc(CN2C[C@H]3CN(Cc4ccc5c(c4)OCCO5)CCN3C2=O)cc1 | 16% | -1.92
O=C(c1ccc(OC(F)F)cc1)N1C[C@H](O)[C@@H](N2CCCC2)C1 | -5% | 0.89
C[C@@H](c1nc2ccccc2c(=O)[nH]1)N1CCC(c2ncco2)CC1 | -4% | 0.55
